{
  "source": "patent US20240228567A1",
  "about": "(Zymeworks, published 2024)",
  "binders": {"B1": {"name": "Masked IL12 HetFc fusion protein variant 37480 (p40 D161R) (Fc fusion)", "chain 1": "[here human IgG1 Fc with changes without letters]SADGGIWELKKDVYVVELDWYPDAPGEMVVLTCDTPEEDGITWTLDQSSEVLGSGKTLTIQVKEFGDAGQYTCHKGGEVLSHSLLLLHKKEDGIWSTDILKDQKEPKNKTFLRCEAKNYSGRFTCWWLTTISTDLTFSVKSSRGSSDPQGVTCGAATLSAERVRGRNKEYEYSVECQEDSACPAAEESLPIEVMVDAVHKLKYENYTSSFFIRDIIKPDPPKNLQLKPLKNSRQVEVSWEYPDTWSTPHSYFSLTFCVQVQGKSKREKKDRVFTDKTSATVICRKNASISVRAQDRYYSSSWSEWASVPCSGGGGSGGGGSGGGGSNLPVATPDPGMFPCLHHSQNLLRAVSNMLQKARQTLEFYPCTSEEIDHEDITKDKTSTVEACLPLELTKNESCLNSRETSFITNGSCLASRKTSFMMALCLSSIYEDLKMYQVEFKTMNAKLLMDPKRQIFLDQNMLAVIDELMQALNFNSETVPQKSSLEEPDFYKTKIKLCILLHAFRIRAVTIDRVMSYLNAS", "chain 2": "EPKSSDKTHTCPPCPAPEAAGGPSVFLFPPKPKDTLMISRTPEVTCVVVSVSHEDPEVKFNWYVDGVEVHNAKTKPREEQYNSTYRVVSVLTVLHQDWLNGKEYKCKVSNKALPAPIEKTISKAKGQPREPQVYVLPPSRDELTKNQVSLLCLVKGFYPSDIAVEWESNGQPENNYLTWPPVLDSDGSFFLYSKLTVDKSRWQQGNVFSCSVMHEALHNHYTQKSLSLSPGGGGGSGGGGSGGGSGGGSGGGGSGGGGSQVQLVESGGGVVQPGRSLRLSCAASGFTFSSYGMHWVRQAPGKGLEWVAFIRYDGSNKYYADSVKGRFTISRDNSKNTLYLQMNSLRAEDTAVYYCKTHGSHDNWGQGTMVTVSSGGSGGGSGGGSGGGSGGGSGQSVLTQPPSVSGAPGQRVTISCSGSRSNIGSNTVKWYQQLPGTAPKLLIYYNDQRPSGVPDRFSGSKSGTSASLAITGLQAEDEADYYCQSYDRYTHPALLFGTGTKVTVL"}, "B2": {"name": "Masked IL12 HetFc fusion protein variant 37491 (p40 W15H_K84L) (Fc fusion)", "chain 1": "[here human IgG1 Fc with changes without letters]SADGGIWELKKDVYVVELDHYPDAPGEMVVLTCDTPEEDGITWTLDQSSEVLGSGKTLTIQVKEFGDAGQYTCHKGGEVLSHSLLLLHLKEDGIWSTDILKDQKEPKNKTFLRCEAKNYSGRFTCWWLTTISTDLTFSVKSSRGSSDPQGVTCGAATLSAERVRGDNKEYEYSVECQEDSACPAAEESLPIEVMVDAVHKLKYENYTSSFFIRDIIKPDPPKNLQLKPLKNSRQVEVSWEYPDTWSTPHSYFSLTFCVQVQGKSKREKKDRVFTDKTSATVICRKNASISVRAQDRYYSSSWSEWASVPCSGGGGSGGGGSGGGGSNLPVATPDPGMFPCLHHSQNLLRAVSNMLQKARQTLEFYPCTSEEIDHEDITKDKTSTVEACLPLELTKNESCLNSRETSFITNGSCLASRKTSFMMALCLSSIYEDLKMYQVEFKTMNAKLLMDPKRQIFLDQNMLAVIDELMQALNFNSETVPQKSSLEEPDFYKTKIKLCILLHAFRIRAVTIDRVMSYLNAS", "chain 2": "B1 chain 2"}, "B3": {"name": "Masked IL12 HetFc fusion protein variant 37483 (p40 E86W) (Fc fusion)", "chain 1": "[here human IgG1 Fc with changes without letters]SADGGIWELKKDVYVVELDWYPDAPGEMVVLTCDTPEEDGITWTLDQSSEVLGSGKTLTIQVKEFGDAGQYTCHKGGEVLSHSLLLLHKKWDGIWSTDILKDQKEPKNKTFLRCEAKNYSGRFTCWWLTTISTDLTFSVKSSRGSSDPQGVTCGAATLSAERVRGDNKEYEYSVECQEDSACPAAEESLPIEVMVDAVHKLKYENYTSSFFIRDIIKPDPPKNLQLKPLKNSRQVEVSWEYPDTWSTPHSYFSLTFCVQVQGKSKREKKDRVFTDKTSATVICRKNASISVRAQDRYYSSSWSEWASVPCSGGGGSGGGGSGGGGSNLPVATPDPGMFPCLHHSQNLLRAVSNMLQKARQTLEFYPCTSEEIDHEDITKDKTSTVEACLPLELTKNESCLNSRETSFITNGSCLASRKTSFMMALCLSSIYEDLKMYQVEFKTMNAKLLMDPKRQIFLDQNMLAVIDELMQALNFNSETVPQKSSLEEPDFYKTKIKLCILLHAFRIRAVTIDRVMSYLNAS", "chain 2": "B1 chain 2"}, "B4": {"name": "Masked IL12 HetFc fusion protein variant 37470 (p40 K84W_K197W) (Fc fusion)", "chain 1": "[here human IgG1 Fc with changes without letters]SADGGIWELKKDVYVVELDWYPDAPGEMVVLTCDTPEEDGITWTLDQSSEVLGSGKTLTIQVKEFGDAGQYTCHKGGEVLSHSLLLLHWKEDGIWSTDILKDQKEPKNKTFLRCEAKNYSGRFTCWWLTTISTDLTFSVKSSRGSSDPQGVTCGAATLSAERVRGDNKEYEYSVECQEDSACPAAEESLPIEVMVDAVHKLWYENYTSSFFIRDIIKPDPPKNLQLKPLKNSRQVEVSWEYPDTWSTPHSYFSLTFCVQVQGKSKREKKDRVFTDKTSATVICRKNASISVRAQDRYYSSSWSEWASVPCSGGGGSGGGGSGGGGSNLPVATPDPGMFPCLHHSQNLLRAVSNMLQKARQTLEFYPCTSEEIDHEDITKDKTSTVEACLPLELTKNESCLNSRETSFITNGSCLASRKTSFMMALCLSSIYEDLKMYQVEFKTMNAKLLMDPKRQIFLDQNMLAVIDELMQALNFNSETVPQKSSLEEPDFYKTKIKLCILLHAFRIRAVTIDRVMSYLNAS", "chain 2": "B1 chain 2"}, "B5": {"name": "Masked IL12 HetFc fusion protein variant 37469 (p40 E86R_K197D) (Fc fusion)", "chain 1": "[here human IgG1 Fc with changes without letters]SADGGIWELKKDVYVVELDWYPDAPGEMVVLTCDTPEEDGITWTLDQSSEVLGSGKTLTIQVKEFGDAGQYTCHKGGEVLSHSLLLLHKKRDGIWSTDILKDQKEPKNKTFLRCEAKNYSGRFTCWWLTTISTDLTFSVKSSRGSSDPQGVTCGAATLSAERVRGDNKEYEYSVECQEDSACPAAEESLPIEVMVDAVHKLDYENYTSSFFIRDIIKPDPPKNLQLKPLKNSRQVEVSWEYPDTWSTPHSYFSLTFCVQVQGKSKREKKDRVFTDKTSATVICRKNASISVRAQDRYYSSSWSEWASVPCSGGGGSGGGGSGGGGSNLPVATPDPGMFPCLHHSQNLLRAVSNMLQKARQTLEFYPCTSEEIDHEDITKDKTSTVEACLPLELTKNESCLNSRETSFITNGSCLASRKTSFMMALCLSSIYEDLKMYQVEFKTMNAKLLMDPKRQIFLDQNMLAVIDELMQALNFNSETVPQKSSLEEPDFYKTKIKLCILLHAFRIRAVTIDRVMSYLNAS", "chain 2": "B1 chain 2"}, "B6": {"name": "Masked IL12 HetFc fusion protein variant 37472 (p40 K84I_E86R) (Fc fusion)", "chain 1": "[here human IgG1 Fc with changes without letters]SADGGIWELKKDVYVVELDWYPDAPGEMVVLTCDTPEEDGITWTLDQSSEVLGSGKTLTIQVKEFGDAGQYTCHKGGEVLSHSLLLLHIKRDGIWSTDILKDQKEPKNKTFLRCEAKNYSGRFTCWWLTTISTDLTFSVKSSRGSSDPQGVTCGAATLSAERVRGDNKEYEYSVECQEDSACPAAEESLPIEVMVDAVHKLKYENYTSSFFIRDIIKPDPPKNLQLKPLKNSRQVEVSWEYPDTWSTPHSYFSLTFCVQVQGKSKREKKDRVFTDKTSATVICRKNASISVRAQDRYYSSSWSEWASVPCSGGGGSGGGGSGGGGSNLPVATPDPGMFPCLHHSQNLLRAVSNMLQKARQTLEFYPCTSEEIDHEDITKDKTSTVEACLPLELTKNESCLNSRETSFITNGSCLASRKTSFMMALCLSSIYEDLKMYQVEFKTMNAKLLMDPKRQIFLDQNMLAVIDELMQALNFNSETVPQKSSLEEPDFYKTKIKLCILLHAFRIRAVTIDRVMSYLNAS", "chain 2": "B1 chain 2"}, "B7": {"name": "Masked IL12 HetFc fusion protein variant 37489 (p40 K58H_E86R_K197D) (Fc fusion)", "chain 1": "[here human IgG1 Fc with changes without letters]SADGGIWELKKDVYVVELDWYPDAPGEMVVLTCDTPEEDGITWTLDQSSEVLGSGKTLTIQVHEFGDAGQYTCHKGGEVLSHSLLLLHKKRDGIWSTDILKDQKEPKNKTFLRCEAKNYSGRFTCWWLTTISTDLTFSVKSSRGSSDPQGVTCGAATLSAERVRGDNKEYEYSVECQEDSACPAAEESLPIEVMVDAVHKLDYENYTSSFFIRDIIKPDPPKNLQLKPLKNSRQVEVSWEYPDTWSTPHSYFSLTFCVQVQGKSKREKKDRVFTDKTSATVICRKNASISVRAQDRYYSSSWSEWASVPCSGGGGSGGGGSGGGGSNLPVATPDPGMFPCLHHSQNLLRAVSNMLQKARQTLEFYPCTSEEIDHEDITKDKTSTVEACLPLELTKNESCLNSRETSFITNGSCLASRKTSFMMALCLSSIYEDLKMYQVEFKTMNAKLLMDPKRQIFLDQNMLAVIDELMQALNFNSETVPQKSSLEEPDFYKTKIKLCILLHAFRIRAVTIDRVMSYLNAS", "chain 2": "B1 chain 2"}, "B8": {"name": "Masked IL12 HetFc fusion protein variant 37490 (p40 K84I_E86R_D93H) (Fc fusion)", "chain 1": "[here human IgG1 Fc with changes without letters]SADGGIWELKKDVYVVELDWYPDAPGEMVVLTCDTPEEDGITWTLDQSSEVLGSGKTLTIQVKEFGDAGQYTCHKGGEVLSHSLLLLHIKRDGIWSTHILKDQKEPKNKTFLRCEAKNYSGRFTCWWLTTISTDLTFSVKSSRGSSDPQGVTCGAATLSAERVRGDNKEYEYSVECQEDSACPAAEESLPIEVMVDAVHKLKYENYTSSFFIRDIIKPDPPKNLQLKPLKNSRQVEVSWEYPDTWSTPHSYFSLTFCVQVQGKSKREKKDRVFTDKTSATVICRKNASISVRAQDRYYSSSWSEWASVPCSGGGGSGGGGSGGGGSNLPVATPDPGMFPCLHHSQNLLRAVSNMLQKARQTLEFYPCTSEEIDHEDITKDKTSTVEACLPLELTKNESCLNSRETSFITNGSCLASRKTSFMMALCLSSIYEDLKMYQVEFKTMNAKLLMDPKRQIFLDQNMLAVIDELMQALNFNSETVPQKSSLEEPDFYKTKIKLCILLHAFRIRAVTIDRVMSYLNAS", "chain 2": "B1 chain 2"}},
  "data": [
    {"target": "IL12 receptor on HEK reporter cells stably transfected with genes for the IL12 receptor (UniProt P42701 24-662; Q99665 24-862)", "test": "cell-based or functional assay", "units": {"EC50, IL12 RGA, repeat 1": "nM", "EC50, IL12 RGA, repeat 2": "nM"}, "values": [
      {"binder": "B1", "EC50, IL12 RGA, repeat 1": 13, "EC50, IL12 RGA, repeat 2": 12.9},
      {"binder": "B2", "EC50, IL12 RGA, repeat 1": 12.8, "EC50, IL12 RGA, repeat 2": 12.6},
      {"binder": "B3", "EC50, IL12 RGA, repeat 1": 0.457, "EC50, IL12 RGA, repeat 2": 0.474},
      {"binder": "B4", "EC50, IL12 RGA, repeat 1": 63.2, "EC50, IL12 RGA, repeat 2": 68.6},
      {"binder": "B5", "EC50, IL12 RGA, repeat 1": 27.8, "EC50, IL12 RGA, repeat 2": 18.7},
      {"binder": "B6", "EC50, IL12 RGA, repeat 1": 2.54, "EC50, IL12 RGA, repeat 2": 3.01},
      {"binder": "B7", "EC50, IL12 RGA, repeat 1": 17.4, "EC50, IL12 RGA, repeat 2": 17.9},
      {"binder": "B8", "EC50, IL12 RGA, repeat 1": 4.28, "EC50, IL12 RGA, repeat 2": 3.07}
    ]}
  ]
}
